{"source": "PubChem BioAssay AID485313", "about": "(National Center for Advancing Translational Sciences (NCATS), 2010)", "note": "About 7,600 (2.4%) of roughly 320,000 compounds were called active. The shares of active, inactive and inconclusive entries below differ from those in the screen. The call rests on the fitted dose curve; in most records, active means well fitted activation curve with a large enough effect; inconclusive means small, poorly fitted or top-dose-only effect; inactive means no such curve, though single readings can be large or run the other way. No potency is given beside an inconclusive call; the fits are too rough. Potency means the concentration at half of the fitted maximal effect; tags describe the fitted curve by direction and shape.", "data": [{"assay": "qHTS Assay for NPC1 Promoter Activators; further: nearly all actives have a fitted effect of over 60% in size", "settings": "Huh7 NPC1 promoter luciferase reporter, 24 h; series mostly up to 9.22 µM", "in_short": "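Luciferase expression driven by the NPC1 promoter was measured in stably transfected Huh7 cells after a 24 h compound incubation, using a luciferase reagent and a luminescence read.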", "values": [{"smiles": "CCOc1ccccc1NC(=O)Cn1nnc(C(=O)NCc2ccc3c(c2)OCO3)c1N", "Potency": "inactive"}, {"smiles": "COc1ccc(-c2cc3nc(C)n(N)c(=O)c3s2)cc1", "Potency": "active: 0.0794 µM"}, {"smiles": "COc1cccc(OCc2cc(C(=O)N(C)CCOc3ccc(C)cc3)no2)c1", "Potency": "active: 3.55 µM"}, {"smiles": "Cc1cccc(NC(=O)c2cc(-c3cc(C)ccc3O)n[nH]2)c1", "Potency": "active: 1.12 µM"}, {"smiles": "CCOC(=O)c1cc(N)cc([N+](=O)[O-])c1", "Potency": "inconclusive [activator, single point]"}, {"smiles": "COc1ccc(C(=O)Nc2ccccc2C(=O)Nc2cccnc2)cc1", "Potency": "inactive"}, {"smiles": "N/C(=N\\OC(=O)c1ccoc1)c1ccc(Br)cc1", "Potency": "active: 2.51 µM"}, {"smiles": "Cc1ccc(/C(N)=N/OC(=O)c2ccc(Cl)cc2Cl)cc1", "Potency": "active: 3.16 µM"}, {"smiles": "Cc1cc(N2CCOCC2)n2ncc(-c3ccccc3)c2n1", "Potency": "active: 0.562 µM"}, {"smiles": "COc1ccc(-n2nc3c(c2NC(=O)CCl)CSC3)cc1", "Potency": "inactive"}, {"smiles": "CC(=O)Nc1ccc2oc(-c3cc(F)c(F)cc3Cl)nc2c1", "Potency": "active: 0.316 µM"}, {"smiles": "Cc1ccc(C(=O)c2cnc3ccccc3c2-c2ccccc2)cc1", "Potency": "inactive"}, {"smiles": "COc1cc(/C=C2/C(=N)N3C(=NC2=O)SN=C3S(C)(=O)=O)ccc1OS(=O)(=O)c1ccccc1", "Potency": "inactive"}, {"smiles": "O=C(CCS(=O)(=O)c1ccccc1)Nc1ccc(S(=O)(=O)Nc2ncccn2)cc1", "Potency": "inactive"}, {"smiles": "Cc1ccc(C(=O)NCCc2ccncc2)cc1", "Potency": "inconclusive [activator, partial curve]"}, {"smiles": "O=C(Nc1nccs1)c1c(O)c2c([nH]c1=O)CCCC2", "Potency": "inconclusive [activator, single point]"}, {"smiles": "CCOC(=O)c1cnn(-c2ccc(C(C)C)cc2)c1NC(=O)C1CCC1", "Potency": "inconclusive [activator, single point]"}, {"smiles": "Cc1ccccc1-c1nc(Cc2ccccc2)no1", "Potency": "inconclusive [activator, single point]"}, {"smiles": "CCCNC(=S)NNC(=O)c1cc(-c2cccnc2)nc2ccccc12", "Potency": "inactive"}, {"smiles": "O=C(CSc1ncccn1)NC1CCCc2ccccc21", "note": "(stereo not drawn)", "Potency": "inactive"}, {"smiles": "CC(C)COc1ccc(-c2cc(C(=O)NN)[nH]n2)cc1", "Potency": "inconclusive [activator, partial curve]"}, {"smiles": "CCCC1=NN2C(=N)/C(=C\\c3ccc(OCCOc4ccc(NC(C)=O)cc4)c(OC)c3)C(=O)N=C2S1", "Potency": "inactive"}, {"smiles": "COc1cc(-c2nnn(CC#N)n2)ccc1OCc1ccccc1", "Potency": "inconclusive [activator, partial curve]"}, {"smiles": "COc1ccc(NC(=O)Nc2ccc3c(c2)OCO3)c(C)c1", "Potency": "inconclusive [activator, partial curve]"}, {"smiles": "O=C(c1cccc(COc2cccc3ccccc23)c1)N1CCCC1", "Potency": "inconclusive [activator, single point]"}, {"smiles": "COc1ccc(CCN2CC(C(=O)N(C)Cc3ccc(C)o3)CCC2=O)cc1", "note": "(stereo not drawn)", "Potency": "inconclusive [activator, single point]"}, {"smiles": "CC1(C)CN=c2s/c(=C\\c3ccc(Cl)cc3)c(=O)n2C1", "Potency": "inconclusive [activator, single point]"}, {"smiles": "COc1ccc(OCc2cc(C(=O)N3CCCC(CO)C3)no2)c2ccccc12", "note": "(stereo not drawn)", "Potency": "active: 3.98 µM"}, {"smiles": "CCCOc1ncnc2c1[nH]c1ccc(C)cc12", "Potency": "active: 2.82 µM"}, {"smiles": "O=C(N/N=C1/C(=O)c2cccc3cccc1c23)c1ccc(Cl)cc1", "Potency": "inconclusive [activator, partial curve]"}, {"smiles": "Cc1cc2n(n1)C(c1ccc(N(C)C)cc1)Nc1ccccc1-2", "note": "(stereo not drawn)", "Potency": "inactive"}, {"smiles": "COc1ccccc1C(=O)Nc1nnc(C)s1", "Potency": "inconclusive [activator, partial curve]"}, {"smiles": "Cc1ccc(NS(=O)(=O)c2ccc(C(=O)N3CCCCCCC3)cc2)cc1", "Potency": "inconclusive [activator, partial curve]"}, {"smiles": "COC(=O)c1c(C)c2c(C)cc3ccccn3c-2c1C(=O)OC", "Potency": "inactive"}, {"smiles": "Nc1cc(-c2nc3ncccc3o2)ccc1Cl", "Potency": "inconclusive [activator, single point]"}, {"smiles": "COc1ccc(OC)c(C2CC(=O)Nc3cc(OC)c(OC)c(OC)c32)c1", "note": "(stereo not drawn)", "Potency": "inactive"}, {"smiles": "O=C(NCc1ccco1)c1cccn2c(=O)c3cc4ccccc4cc3nc12", "Potency": "inactive"}, {"smiles": "NC(=O)C1=C[C@H](c2ccc3c(c2)OCO3)C[C@H](OCc2ccc(CO)cc2)O1", "Potency": "inconclusive [activator, single point]"}, {"smiles": "CC(/C=N/NC(=O)CSc1ccccn1)=C\\c1ccc(C(C)C)cc1", "Potency": "inconclusive [activator, single point]"}, {"smiles": "O=C(c1ccco1)N1CCN(Cc2c(Cl)cccc2Cl)CC1", "Potency": "inconclusive [activator, single point]"}, {"smiles": "O=C(NC1CCCCCC1)C1CCC(=O)N(Cc2ccccc2F)C1", "note": "(stereo not drawn)", "Potency": "inactive"}, {"smiles": "Clc1cccc(N=C2NN=C(c3ccc4c(c3)OCCO4)CS2)c1", "Potency": "inconclusive [activator, partial curve]"}, {"smiles": "COCCn1c(C)cc(C(=O)Cn2nc(C(=O)O)c3ccccc3c2=O)c1C", "Potency": "inactive"}, {"smiles": "CCCN1Cc2cccc(C(=O)N3CCN(c4ccc(OC)cc4)CC3)c2C1=O", "Potency": "inactive"}, {"smiles": "Cc1nc2ccc(C(=O)Nc3cccc([N+](=O)[O-])c3)cc2s1", "Potency": "inconclusive [activator, single point]"}, {"smiles": "CCOc1ccc(N2C(=O)c3ccccc3NC2(C)CC)cc1", "note": "(stereo not drawn)", "Potency": "inconclusive [activator, single point]"}, {"smiles": "CCOC(=O)/C(=C/c1cn(C)c2ccccc12)NC(=O)c1ccccc1", "Potency": "inactive"}, {"smiles": "COc1ccc(C(=O)N2CCc3ccc(NC(=O)c4ccccn4)cc3C2)cc1F", "Potency": "inconclusive [activator, single point]"}, {"smiles": "O=C(c1ccc(Br)s1)N1CCc2ccccc2C1", "Potency": "inconclusive [activator, single point]"}, {"smiles": "CCOC(=O)c1cnn(-c2ccccn2)c1N", "Potency": "active: 3.98 µM"}, {"smiles": "CCOC(=O)c1c(C)[nH]c(N=Nc2ccc(C)cc2C)c1C", "Potency": "inconclusive [activator, full curve]"}, {"smiles": "CCOC(=O)c1cc(-c2ccc(Cl)cc2)nc2c1c(C)nn2CCC#N", "Potency": "inactive"}, {"smiles": "COC(=O)c1ccc(-c2cc3onc(-c4ccccc4)c3c(=O)n2C)cc1", "Potency": "inconclusive [activator, single point]"}, {"smiles": "CC1Cc2cc(-c3csc(N)n3)ccc2O1", "note": "(stereo not drawn)", "Potency": "inconclusive [activator, partial curve]"}, {"smiles": "COC(=O)Cc1nc(Nc2ccccc2)sc1C", "Potency": "inactive"}, {"smiles": "COc1ccc(CNC(=O)Cn2ncn3cccc3c2=O)cc1", "Potency": "inconclusive [activator, partial curve]"}, {"smiles": "CCOc1cc(C=O)cc(Br)c1OCC(N)=O", "Potency": "inactive"}, {"smiles": "O=C(Nc1cccc2[nH]ncc12)c1ccc(F)cc1", "Potency": "inconclusive [activator, partial curve]"}, {"smiles": "CN(C)c1ccc(N=C/C=C2/N(C)c3ccccc3C2(C)C)cc1", "Potency": "inactive"}, {"smiles": "Cc1ccccc1-c1cccc([C@@H]2C[C@H]3CN(Cc4cccnc4)C(=O)[C@]34CCCN24)c1", "Potency": "inactive"}, {"smiles": "Oc1ccc(/C=N/Nc2nn3cnnc3c3ccccc23)cc1", "Potency": "inconclusive [activator, single point]"}, {"smiles": "Cc1cc2nc(-c3ccc(SCC(=O)N4CCOCC4)nc3)[nH]c2cc1C", "Potency": "inconclusive [activator, single point]"}, {"smiles": "CCc1ccc(NC(=O)c2cccnc2)cc1", "Potency": "inconclusive [activator, partial curve]"}, {"smiles": "CC(C)(C)OC(=O)NCCCC[C@H](NC(=O)c1nc[nH]c1C(=O)N1CCN(c2ccccc2)CC1)C(=O)OC(C)(C)C", "Potency": "inactive"}, {"smiles": "Cc1ccc(NC(=O)c2ccc3c(c2)OCCO3)cc1C", "Potency": "active: 0.631 µM"}, {"smiles": "O=C(Nc1cccc2nsnc12)c1ccc2c(c1)OCO2", "Potency": "inconclusive [activator, partial curve]"}, {"smiles": "O=C(/C=C/c1ccc(Cl)cc1Cl)Nc1cccc(S(=O)(=O)NC2=NCCC2)c1", "Potency": "active: 1 µM"}, {"smiles": "Cc1ccc2sc(NC(=O)CSc3nc(C)cc(C)c3C#N)nc2c1", "Potency": "inconclusive [activator, single point]"}, {"smiles": "C/C(=N/NC(=O)CNC(=O)c1cccnc1)c1ccccc1", "Potency": "inconclusive [activator, partial curve]"}, {"smiles": "O=C(COc1ccc(Cl)cc1[N+](=O)[O-])NC1CCCCC1", "Potency": "inconclusive [activator, partial curve]"}, {"smiles": "c1ccc2c(-c3cn4ccccc4n3)c[nH]c2c1", "Potency": "inconclusive [activator, partial curve]"}, {"smiles": "CN(C(=S)NC(=O)c1ccc(Cl)cc1)C1CCCCC1", "Potency": "inconclusive [activator, partial curve, poor fit]"}, {"smiles": "CCCc1ccc(-c2csc(NC(=O)C3=COCCO3)n2)cc1", "Potency": "active: 1.12 µM"}, {"smiles": "O=C(OCC(=O)c1cccc2ccccc12)c1ccc(CO)cc1", "Potency": "inconclusive [activator, single point]"}, {"smiles": "COc1ccc(C(=O)/C=C/c2ccccc2)c(O)c1", "Potency": "inconclusive [activator, partial curve]"}, {"smiles": "Cc1ccc(C(=O)Cc2nnc(C)s2)cc1", "Potency": "inconclusive [activator, partial curve]"}, {"smiles": "O=C(NCc1ccco1)c1cc(-c2ccccc2)nc2ccccc12", "Potency": "inactive"}, {"smiles": "COC(=O)c1ccccc1SCC(=O)Nc1ccc(N2CCOCC2)cc1", "Potency": "inconclusive [activator, partial curve]"}]}]}
